# The whole screen tested about 210,000 compounds, of which about 730 (0.35%) were called active. Inconclusive means that the source gave no clear call. Such entries were picked first, then a sample of the others. The call rests on the fitted dose curve; in most records, active means well fitted inhibition curve with a large enough effect; inconclusive means small, poorly fitted or top-dose-only effect; inactive means no such curve, though single readings can be large or run the other way. A potency beside an inconclusive call is a rough fit, not a confirmed value.
# Assay: qHTS Assay for Identifying the Cell-Membrane Permeable IMPase Inhibitors: Potentiation with Lithium; further: nearly all actives have a fitted effect of over 50% in size;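 on activity, negative = IMPase inhibition: plate controls were basal vehicle for no effect and high inhibitor control for full effect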
# Settings: CHO-M1 cells, IP1 TR-FRET (IP-One), carbachol + lithium; series mostly up to 59.4 µM; activity, negative = IMPase inhibition: at the top concentration
# Procedure, shortened: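 CHO cells stably expressing M1 receptor (2000/well, cultured 16–30 h) treated 30 min at 37C with compound plus low lithium. Cytosolic IP1 by TR-FRET (665/620 ratio and 620 channel) after 10 min lysis; AC50 by Hill fit.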
# Potency means the concentration at half of the fitted maximal effect.
SMILES,"activity, negative = IMPase inhibition",Potency
CC1(C)CC(=O)C/C(=N\NC(=O)C2CC2c2ccccc2)C1 (configuration not stated),inactive: -2.21%,–
CNC(=O)NC(=O)C(C)OC(=O)c1c2c(nc3ccccc13)/C(=C/c1cccs1)CC2 (configuration not stated),–,"inconclusive: 31.6 µM [inhibitor, partial curve]"
CN(C)c1nc(C#N)nc(N2CCOCC2)n1,–,"inconclusive: 31.6 µM [inhibitor, partial curve, poor fit]"
CC(C)C[C@@H](CC(=O)N[C@@H](CCC(=O)O)CC(=O)O)NC(=O)[C@@H]1CCCC[C@H]1NC(=O)C[C@@H](NC(=O)C[C@H](CO)NC(=O)[C@@H]1CNCC[C@H]1N)C(C)C,inactive: 12.3%,–
CCNc1ncc2nc(-c3ccccc3)c(=O)n(C[C@H]3CCCO3)c2n1,inactive: -9.66%,–
COC(=O)CCCNc1ncccc1[N+](=O)[O-],–,"inconclusive: 2.51 µM [inhibitor, single point]"
CCOc1ccc(S(=O)(=O)Nc2ccccn2)c2ccccc12,–,"inconclusive: 28.2 µM [inhibitor, single point]"
COc1ccc(S(=O)(=O)N(CCc2ccccc2)CC(=O)N/N=C/c2ccc3c(c2)OCO3)cc1,inactive: 2.66%,–
Cc1ccc(-c2nnn(CC(=O)N(Cc3ccco3)C(C(=O)NC3CCCC3)c3cccs3)n2)o1 (configuration not stated),inactive: 15.6%,–
COc1cnc(-c2ccccn2)nc1NC(C)C,–,"inconclusive: 5.01 µM [inhibitor, single point]"
O=C(COC(=O)/C=C/c1ccccc1)NCC1CCCO1 (configuration not stated),–,"inconclusive: 3.16 µM [inhibitor, single point]"
Cc1nnc(SCC(=O)Nc2ccc(Cl)cn2)n1Cc1ccccc1,–,"inconclusive: 17.8 µM [inhibitor, partial curve, poor fit]"
C=CC(=O)N1C(=O)c2ccccc2S1(=O)=O,inactive: 12.7%,–
CC(=O)c1ccc(NC(=O)COc2ccccc2C(=O)Nc2ccc(C)cn2)cc1,–,"inconclusive: 28.2 µM [inhibitor, single point]"
CC(=O)c1cn(CC(=O)Nc2ccc(C)cc2)c2ccccc12,–,"inconclusive: 28.2 µM [inhibitor, single point]"
c1cncc(-c2cccnc2)c1,–,active: 14.1 µM
CCSc1nc2c(c(=O)[nH]c(=O)n2C)n1C,–,"inconclusive: 28.2 µM [inhibitor, single point]"
O=C(CSc1nc2scc(-c3ccco3)c2c(=O)n1-c1ccccc1)N1CCOCC1,–,"inconclusive: 10 µM [inhibitor, partial curve]"
Cn1c(=O)c2c(nc(CN3CCN(C(=O)c4ccco4)CC3)n2Cc2ccccc2F)n(C)c1=O,inactive: 7.13% [at 38.3 µM],–
Cc1nn(-c2ccccc2)c2sc(C(=O)c3c(N)n(C)c(=O)n(C)c3=O)cc12,–,"inconclusive: 28.2 µM [inhibitor, single point]"
Cn1c(SCC(=O)Nc2cccc(Br)c2)nnc1-c1cc2ccccc2o1,–,"inconclusive: 11.2 µM [inhibitor, single point]"
Cc1cc(Br)cn2cc(C(=O)O)nc12,–,"inconclusive: 7.08 µM [inhibitor, partial curve]"
Cc1ccc(NC(=O)Cn2cc(S(=O)(=O)c3ccc(C)cc3)c(=O)c3cc(F)ccc32)cc1,–,"inconclusive: 28.2 µM [inhibitor, single point]"
CCOC(=O)C1=C(C)NC2=C(C(=O)OC2)C1c1ccccc1 (configuration not stated),inactive: 6.03%,–

SMILES,"activity, negative = IMPase inhibition",Potency
Cc1ccc(C)c(NC(=O)C(Sc2ncnc3ccccc23)c2ccccc2)c1 (configuration not stated),–,"inconclusive: 22.4 µM [inhibitor, single point]"
O=c1ccn([C@@H]2O[C@H](COP(=O)(O)OP(=O)(O)OP(=O)(O)O)[C@@H](O)[C@H]2O)c(=O)[nH]1,–,"inconclusive: 28.2 µM [inhibitor, single point]"
CC1(C)CC2CC(C)(CN2C(=O)COC(=O)c2ccc(Cl)cc2N)C1 (configuration not stated),–,"inconclusive: 28.2 µM [inhibitor, single point]"
O=C(COC(=O)c1ccc2[nH]c3c(c2c1)CCCC3)Nc1ccccc1Cl,–,"inconclusive: 22.4 µM [inhibitor, single point]"
NS(=O)(=O)c1ccc(CCN2C(=O)/C(=C\c3ccc(Cl)cc3)SC2=S)cc1,inactive: -0.256%,–
CCc1ccc(NC(=O)CSc2nc3cc(C(=O)OC)ccc3c(=O)n2CC2CCCO2)cc1 (configuration not stated),–,active: 14.1 µM
CC(=O)NCCNc1ncnc2ccc(-c3ccccc3C)cc12,inactive: -5.76%,–
CN(C)c1ccc(C(=C2C=CC(=[N+](C)C)C=C2)c2ccc(N(C)C)cc2)cc1,inactive: 374%,–
O=[N+]([O-])c1cnn(-c2nc(-c3cccs3)cc(C(F)(F)F)n2)c1,–,"inconclusive: 28.2 µM [inhibitor, single point]"
Cc1cc(C)n(C(=O)CCCn2cc([N+](=O)[O-])cn2)n1,–,"inconclusive: 3.98 µM [inhibitor, full curve]"
Cc1nc(SC2CC(=O)N(c3ccccc3)C2=O)nc2c1CCCC2 (configuration not stated),inactive: 33.1% [at 38.3 µM],–
CCN(CCCCOC(=O)c1ccc(OC)c(OC)c1)[C@@H](C)Cc1ccc(OC)cc1,inactive: -1.21%,–
Cc1cc2oc(=O)cc(CN3CCN(Cc4ccccc4)CC3)c2cc1Cl,inactive: 0.543% [at 38.3 µM],–
COc1cccc(CN2CCSCC2)c1,inactive: -12.7% [at 38.3 µM],–
COc1ccc(C(=O)N2CCC3(CC2)CN(C(=O)Nc2cccc(C#N)c2)C3)cc1,inactive: -0.367%,–
O=c1cc(C(F)F)oc2c1ccc1ccccc12,–,"inconclusive: 28.2 µM [inhibitor, single point]"
Cc1onc(-c2ccccc2)c1C(=O)Nc1cccc2nsnc12,–,"inconclusive: 28.2 µM [inhibitor, single point]"
CS(=O)c1ccccc1-c1nc(-c2cccc(Cl)c2)no1 (configuration not stated),inactive: -3.2%,–
O=C(CSC(=S)N1CCOCC1)Nc1nc(=O)c2ccccc2s1,inactive: -6.18%,–
COC(=O)c1c(NC(=S)Nc2ccc(CC(=O)O)cc2)sc(C)c1C,–,"inconclusive: 11.2 µM [inhibitor, partial curve]"
CCCOc1ccc(C2c3c(oc4ccccc4c3=O)C(=O)N2CCCN2CCOCC2)cc1 (configuration not stated),inactive: 24% [at 38.3 µM],–
Nc1c(C(=O)Nc2nccs2)sc2nc(-c3cccs3)cc(C(F)(F)F)c12,–,"inconclusive: 8.91 µM [inhibitor, partial curve]"
CN(C)C=NC(=O)c1ccc(N2CCN(c3ncc(C(F)(F)F)cc3Cl)CC2)cc1,–,"inconclusive: 28.2 µM [inhibitor, single point]"
CCCCNC(=O)Cc1c(OC)ccc2cc(Br)ccc12,–,"inconclusive: 11.2 µM [inhibitor, single point]"

SMILES,"activity, negative = IMPase inhibition",Potency
Cc1cc(NC(=O)CSc2nc3c(sc4ccccc43)c(=O)n2CCc2ccccc2)n[nH]1,–,"inconclusive: 28.2 µM [inhibitor, single point]"
Fc1ccc(C2CCCN2Cc2nc(-c3cnccn3)no2)cc1 (configuration not stated),inactive: -0.427%,–
Cc1cc(C(=O)NCc2cccs2)cs1,inactive: 10.9% [at 38.3 µM],–
CC(N)=NCCC[C@H](N)C(=O)O,inactive: 11.7%,–
COc1ccc(CCNC(=O)Cn2cnc3c(nnn3Cc3ccc(C)cc3)c2=O)cc1OC,–,"inconclusive: 28.2 µM [inhibitor, single point]"
Cc1ccc(/C(O)=C2\C(=O)C(=O)N(c3cc(C)on3)C2c2cccc(Br)c2)cc1 (configuration not stated),–,"inconclusive: 14.1 µM [inhibitor, partial curve]"
N#Cc1c(-c2ccco2)nc(SCc2ccc(F)cc2)[nH]c1=O,–,active: 12.6 µM
CCOC(=O)COc1cc(Br)c(/C=N/Nc2ccccc2)cc1OC,–,"inconclusive: 7.94 µM [inhibitor, partial curve]"
CCOC(=O)c1cc(-c2ccc(C#N)cc2)nc2c1c(C)nn2CCC#N,–,"inconclusive: 28.2 µM [inhibitor, single point]"
NC1=NC(c2ccc(F)cc2)n2c(nc3ccccc32)N1 (configuration not stated),inactive: -4.19% [at 38.3 µM],–
COc1ccccc1N1CCN(C(=O)c2ccc(CS(=O)(=O)c3ccccc3OC)o2)CC1,–,"inconclusive: 28.2 µM [inhibitor, single point]"
COC(=O)CSc1ncnc2c1cnn2Cc1ccccc1,–,"inconclusive: 10 µM [inhibitor, partial curve]"
C=CCn1c(=NC(=O)c2ccco2)sc2cc(C(=O)OCC)ccc21,–,"inconclusive: 14.1 µM [inhibitor, single point]"
O=C(c1ccc(Cl)c(Cl)c1)c1cc(-c2ccccn2)c(N2CCOCC2)s1,–,active: 10 µM
CC1CN(S(=O)(=O)c2cccc(-c3cn4cccnc4n3)c2)CC(C)O1 (configuration not stated),–,"inconclusive: 11.2 µM [inhibitor, partial curve]"
CCCc1cc(=O)oc2c(C)c(O)c(CN3CCCCC3)cc12,–,"inconclusive: 11.2 µM [inhibitor, partial curve]"
CC1(C)Cc2nc3sc4c(SCC(=O)NCc5ccco5)ncnc4c3cc2CO1,–,"inconclusive: 28.2 µM [inhibitor, single point]"
CC(C)OCCCNC(=S)Nc1ccc(S(N)(=O)=O)cc1,inactive: -10.2%,–
Cc1nc(SCC(=O)Nc2nc3ccccc3s2)c(C#N)c(C)c1C,inactive: 3.92%,–
Cc1ccc(Cn2ccc(NC(=O)c3cc(-c4ccc(Br)cc4)on3)n2)cc1,–,"inconclusive: 10 µM [inhibitor, partial curve]"
COc1ccc(OC)c(NC(=O)CCNC(=O)Cn2cnc3ccccc3c2=O)c1,–,"inconclusive: 5.01 µM [inhibitor, single point]"
COc1ccc(-c2ccc(-c3noc(-c4cccc(OC)c4)n3)c(OC)n2)cc1,–,"inconclusive: 12.6 µM [inhibitor, single point]"
COc1cccc(-c2ccc3ncnc(N4CCNCC4)c3c2)c1,inactive: 6.76%,–
COc1ccc(C2C(C(=O)N3CCN(c4ccccn4)CC3)CCC(=O)N2c2ccc(OC)cc2)cc1 (configuration not stated),–,"inconclusive: 22.4 µM [inhibitor, single point]"
